Measured values taken from ChEMBL document CHEMBL4888484, “Replenishing the malaria drug discovery pipeline: Screening and hit evaluation of the MMV Hit Generation Library 1 (HGL1) against asexual blood stage Plasmodium falciparum ,using a nano luciferase reporter read-out” (2022).
Among all 150,000 compounds or so, about 540 (0.36%) showed an effect of 50% or more. Some of the results follow.

test system: Plasmodium falciparum; assay: Primary screen in NF54 nanoGlo assay, in single point, at 2uM, 72h; a lower Z score goes with more inhibition; assay type: functional, Erythrocyte; conditions: timepoint 72 hour

Compound | % Inhibition [%] | Z score
COc1ccc(-c2cnc3ncnn3c2N2CCN(C(=O)NCc3cccc(C)c3)CC2)cc1 | 2 | -0.21
C[C@H](NS(=O)(=O)Cc1ccon1)c1cccc(OC(F)F)c1 | -2 | 0.32
CC(C)(C(=O)N[C@H]1CCN(Cc2cccnc2)C[C@@H]1O)N1CCOCC1 | -3 | 0.41
CCn1nc(-c2ccc(C(=O)N3CCC(F)(F)CC3)cc2)nc1N(C)C | -7 | 0.92
CC(=O)N1CCc2cc(S(=O)(=O)N(C)Cc3ccncc3)ccc21 | 3 | -0.59
O=C(NCC(=O)N1CCC(c2nc3cc(F)ccc3s2)CC1)c1cccnc1 | 10 | -1.38
COc1cc(C#N)cc(Cl)c1OC(C)C | 10 | -1.38
CN(C)c1nc2c(c(N[C@@H]3COC4(CCCC4)C3)n1)CCNC2 | -7 | 0.87
Cc1cc(NC(=O)c2cccc(-n3cnnn3)c2)sn1 | -7 | 0.9
Cc1cccc(CN2CCC[C@@]3(CCN(Cc4ccc(C)o4)C3)C2=O)c1 | -9 | 1.37
CCCO[C@H]1CCCN(C(=O)c2cc(N3CCCC3=O)ccc2F)CC1 | -15 | 1.87
CC(C)(C)CCN1CCN(S(=O)(=O)C[C@H]2CCCS(=O)(=O)C2)CC1 | 36 | -5.15
CC(C)[C@@H](CO)Nc1cc(C(N)=O)nc(N[C@H](CO)C(C)C)n1 | -5 | 0.65
CCN(CC)C(=O)[C@@H](C)[C@@H]1CC[C@@]2(C)CC[C@H](NS(C)(=O)=O)[C@@H](C)[C@@H]2[C@H]1O | 0 | 0.07
CN(C)Cc1nc(Cc2cccnc2)nn1CCCO | -6 | 0.79
CC(C)Cc1nsc(NCC#CCO)n1 | 2 | -0.23
CCNC(=O)CN(CC)C(=O)NCCc1ccccc1Br | -2 | 0.3
C[C@@H](CN1CCCCCC1)NCCc1ccncc1 | 1 | -0.1
O=C(CCn1cccn1)N1CCC[C@H](N(CCN2CCCC2)C(=O)C2CCC2)C1 | -9 | 1.14
COCCn1nc(C)c(CNc2nc(C3CC3)ns2)c1C | -6 | 0.62
Cc1cc(N2CCC3(CCCN3Cc3cc(C#N)n(C)c3C)CC2)c2ccccc2n1 | 44 | -7.68
CN(Cc1cnn(C)c1)C(=O)C1=NN(c2ccccc2)C(=O)CN1 | -3 | 0.5
COC1(CO)CCN(c2ncnc3[nH]ccc23)CC1 | -4 | 0.69
COCCn1c(C)cnc1C[C@H]1CCCN(S(=O)(=O)Cc2ccccc2F)C1 | 10 | -1.57
Cn1c(-c2ccccc2Cl)cn2cc(C(=O)N3CC[C@H](O)C3)nc2c1=O | -13 | 1.73
COc1ccc(N2C(=O)CN(C(=O)Cc3cscn3)CC23CCCC3)cc1 | -11 | 1.48
CC#CCNC(=O)[C@@H]1CCC[C@H](C(=O)NCC#CC)C1 | -15 | 1.61

Compound | % Inhibition [%] | Z score
C[C@H]1CCCN(Cc2nc3ccccc3o2)C1 | -19 | 2.62
COc1cc(NC(=O)c2ccc3ccccc3n2)c(OC)cc1NC(=O)c1ccccc1 | 18 | -2.21
O=S(=O)(c1ccc2c(c1)OCCO2)N1CC=C(C(F)(F)F)CC1 | -10 | 0.93
Cc1c(-c2cnn(C)c2)nc(N)c(C#N)c1-c1cccc(Cl)c1 | -1 | 0.19
COC(=O)c1c(-c2ccccc2)c2ccccc2n1-c1ccccc1 | -14 | 1.59
CCCc1nnsc1C(=O)NCc1ccnc(N2CCCC2=O)c1 | -13 | 1.97
CC1CCN(c2ccc(NC(=O)NC3CCCCC3)cc2C(=O)NC[C@H]2CCCO2)CC1 | -5 | 0.89
COc1ccc(CCNC(=O)C2CC(c3cccc(C)c3)CN(Cc3ccccc3)C2)cc1 (stereo unspecified) | -5 | 0.87
COc1cc(F)ccc1-c1ccnc2nc(C3CCC3)nn12 | 7 | -0.92
Cc1cncc(CN2CCCC2CC(O)c2cnn(C)c2)c1 (stereo unspecified) | -4 | 0.45
CNC(=O)[C@@H]1C[C@@H](NCc2ccccc2Cl)CN1C1Cc2ccccc2C1 | 16 | -1.99
Cc1nnc(N(C)C[C@H]2CCN(C)C2(C)C)c2ccccc12 | -4 | 0.61
C=CCN1C(=O)COc2ccc(-c3csc(NC(=O)C(c4ccccc4)c4ccccc4)n3)cc21 | -6 | 1.05
Cc1nc(C)c(C(=O)N[C@H](c2cccs2)C2CCOCC2)s1 | -16 | 2.08
O=C(COc1ccccc1)NCc1noc(-c2ccccc2)n1 | 1 | -0.22
Cc1nn(-c2ccccc2)c(C)c1C(=O)NCc1ccco1 | 3 | -0.55
CCC[C@H]1CN(C(=O)CCc2cccnc2)CCN1C(=O)CCc1cccnc1 | -7 | 0.92
C[C@@H](Cc1cncc2ccccc12)C(=O)N(C)c1cnn(C)c1 | 5 | -0.54
CN(C)C(=O)c1cccc(CCN2C(=O)N[C@@H](C(C)(C)C)C2=O)c1 | 0 | -0.04
Cc1cc(CNc2nnc(-c3ccc4c(c3)CCC4)o2)ccc1C#N | -1 | 0.16
CC(C)(C)c1ccc([C@@H](O)CNc2ncccc2S(C)(=O)=O)cc1 | -13 | 1.55
COCCn1ccc2c(OCC(=O)N3CCC[C@H]3c3nc4ccccc4n3C)cccc21 | -10 | 1.63
COCCN(CC(=O)N(C)C)c1cnc2cc(Cl)c(Cl)cc2n1 | -10 | 1.63
Cc1c(C(=O)N[C@@H]2C=CCCC2)cccc1N1CCNC1=O | 0 | -0.03
CN(Cc1nccn1CC(F)(F)F)C(=O)c1ccc(CNC(=O)c2cccs2)cc1 | 0 | 0
CC1=NS(=O)(=O)N(C)C=C1C(=O)OCc1nc(C2CCCCC2)no1 | -7 | 0.63
